Publication PMC12261228 (ACS Pharmacology & Translational Science, 2025)

Tests used:
[1] = test system: porcine brain tubulin; details: 10 μM compound; for Vmax (maximal velocity of tubulin polymerization): 3 mg/mL tubulin, 340 nm, 37 °C, mean ± SD (n = 3), DMSO 11.6
[2] = target: porcine brain tubulin (Sus scrofa, UniProt P02550+P02554); format: binding; details: four-parameter regression of SPR response
porcine brain tubulin, sequence (P02554 whole entry): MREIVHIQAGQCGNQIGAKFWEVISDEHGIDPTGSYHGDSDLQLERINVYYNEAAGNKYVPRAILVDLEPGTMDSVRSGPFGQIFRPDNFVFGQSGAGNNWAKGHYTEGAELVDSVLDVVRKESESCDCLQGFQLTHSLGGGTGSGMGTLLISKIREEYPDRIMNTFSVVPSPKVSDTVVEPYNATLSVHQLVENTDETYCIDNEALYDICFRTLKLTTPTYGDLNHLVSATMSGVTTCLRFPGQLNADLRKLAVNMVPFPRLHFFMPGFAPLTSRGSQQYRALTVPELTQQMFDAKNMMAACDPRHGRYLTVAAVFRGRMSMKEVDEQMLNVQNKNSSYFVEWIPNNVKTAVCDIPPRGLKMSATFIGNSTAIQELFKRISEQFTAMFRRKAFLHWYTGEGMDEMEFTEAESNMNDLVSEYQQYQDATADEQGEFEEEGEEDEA
porcine brain tubulin, sequence (P02550 whole entry): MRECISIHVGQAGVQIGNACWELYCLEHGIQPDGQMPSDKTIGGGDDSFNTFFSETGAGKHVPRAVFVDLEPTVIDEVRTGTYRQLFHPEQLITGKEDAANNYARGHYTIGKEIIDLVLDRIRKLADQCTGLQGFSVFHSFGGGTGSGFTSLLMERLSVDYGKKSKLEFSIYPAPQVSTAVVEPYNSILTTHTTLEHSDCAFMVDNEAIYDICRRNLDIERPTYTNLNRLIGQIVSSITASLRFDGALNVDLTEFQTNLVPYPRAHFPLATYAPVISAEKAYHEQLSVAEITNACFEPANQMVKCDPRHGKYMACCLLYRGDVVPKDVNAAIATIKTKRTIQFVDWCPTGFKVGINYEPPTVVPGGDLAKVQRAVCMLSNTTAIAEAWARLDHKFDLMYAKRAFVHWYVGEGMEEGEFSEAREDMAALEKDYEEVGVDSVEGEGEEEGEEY

## COc1cc2c(c(OC)c1OC)-c1ccc(OC)c(=O)cc1[C@@H](n1cc(CCCC3=C4C(C)=CC(C)=[N+]4[B-](F)(F)n4c(C)cc(C)c43)[n+](C)n1)CC2 [CB7]
[1]
  Vmax (maximal velocity of tubulin polymerization): 9.4 ± 1.0 mOD/min

## COc1cc2c(c(OC)c1OC)-c1ccc(OC)c(=O)cc1[C@@H](n1cc(CCCC3=C4C(C)=CC(C)=[N+]4[B-](F)(F)n4c(C)cc(C)c43)nn1)CC2 [CB4]
[2]
  Hill Slope: 2.2 ± 0.5
[1]
  effect on tubulin assembly (in words): significantly interfered with tubulin assembly
  Vmax (maximal velocity of tubulin polymerization): 4.0 ± 1.0 mOD/min

## COc1cc2c(c(OC)c1OC)-c1ccc(OC)c(=O)cc1[C@@H](NC(=O)CCCC[N+](C)(C)CCCCC1=C3C(C)=CC(C)=[N+]3[B-](F)(F)n3c(C)cc(C)c31)CC2 [CB3]
[1]
  effect on tubulin assembly (in words): significantly interfered with tubulin assembly
  Vmax (maximal velocity of tubulin polymerization): 6.5 ± 1.8 mOD/min

## COc1cc(C2=C3C(C)=CC(C)=[N+]3[B-](F)(F)n3c(C)cc(C)c32)ccc1OCc1cn([C@H]2CCc3cc(OC)c(OC)c(OC)c3-c3ccc(OC)c(=O)cc32)n[n+]1C [CB9]
[1]
  Vmax (maximal velocity of tubulin polymerization): 10.3 ± 1.0 mOD/min

## COc1cc2c(c(OC)c1OC)-c1ccc(OC)c(=O)cc1[C@@H](n1cc(CCCCCCCCC3=C4C(C)=CC(C)=[N+]4[B-](F)(F)n4c(C)cc(C)c43)nn1)CC2 [CB5]
[1]
  Vmax (maximal velocity of tubulin polymerization): 9.5 ± 2.6 mOD/min

## COc1cc2c(c(OC)c1OC)-c1ccc(OC)c(=O)cc1[C@@H](NC(=O)CCC1=C3C(C)=CC(C)=[N+]3[B-](F)(F)n3c(C)cc(C)c31)CC2 [CB1]
[1]
  effect on tubulin assembly (in words): only weak inhibition of tubulin assembly
  Vmax (maximal velocity of tubulin polymerization): 10.4 ± 2.1 mOD/min

## COc1cc(C2=C3C(C)=CC(C)=[N+]3[B-](F)(F)n3c(C)cc(C)c32)ccc1OCc1cn([C@H]2CCc3cc(OC)c(OC)c(OC)c3-c3ccc(OC)c(=O)cc32)nn1 [CB6]
[1]
  Vmax (maximal velocity of tubulin polymerization): 8.6 ± 1.4 mOD/min

## COc1cc2c(c(OC)c1OC)-c1ccc(OC)c(=O)cc1[C@@H](NC(=O)CCCCCCCCCCC1=C3C(C)=CC(C)=[N+]3[B-](F)(F)n3c(C)cc(C)c31)CC2 [CB2]
[1]
  Vmax (maximal velocity of tubulin polymerization): 9.1 ± 3.2 mOD/min
